Laboratory results: PubChem BioAssay AID504706 (National Center for Advancing Translational Sciences (NCATS), 2011)
Screen size: about 320,000 compounds; about 200 (0.062%) were called active. Inconclusive results, whose numbers are uncertain, are shown with a selection of clear calls. Calls come from the whole dose curve; as a rule, active = well fitted activation curve with a large enough effect; inconclusive = small, poorly fitted or top-dose-only effect; inactive = no such curve, though single readings can be large or run the other way. Potencies of inconclusive entries are left out as doubtful fits.

Test: qHTS assay for re-activators of p53 using a Luc reporter; note: nearly all actives have a fitted effect of over 45% in size
Conditions: H1299 p53-A138V BP100-luciferase reporter, luminescence, 24 h; series mostly up to 92.2 µM
Method in brief: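 H1299 (p53-null), stable ts p53-A138V + BP100-Luc; 1000 cells/well, Opti-MEM/10% FBS; cpd 4 pt, 1:5; 24 h, 37 deg C, 5% CO2; detection reagent 10 min RT; luminescence.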
Potency is the fitted concentration of half-maximal effect; tags give direction and shape of the fitted curve.

Row | SMILES | Potency
1 | Fc1ccc(-c2cc(C(F)(F)F)nc(-n3cc(Cl)cn3)n2)cc1 | inactive
2 | Fc1cc(NCc2ccccc2)nc(NCc2ccccc2)n1 | inconclusive [activator, partial curve, poor fit]
3 | O=C(CSc1nnc(-c2ccccc2F)o1)N1CCNC1=O | inconclusive [activator, full curve, poor fit]
4 | Cc1ccccc1OCC(=O)Nc1cccc(S(=O)(=O)NC2=NCCC2)c1 | inconclusive [activator, partial curve, poor fit]
5 | CCN(CC)CCCN=Cc1c(-c2ccccc2)[nH]n(-c2nc3ccccc3s2)c1=O | inconclusive [activator, partial curve, poor fit]
6 | CC(=O)Nc1cccc(C(=O)/C=C/c2ccc(C)cc2)c1 | inconclusive [activator, partial curve, poor fit]
7 | Cc1ccnc(NC(=O)c2ccc(S(=O)(=O)N3CCCCCC3)cc2)c1 | inconclusive [activator, partial curve, poor fit]
8 | Cc1ccccc1N/N=C/c1c(C)nc2ccccn12 | inactive
9 | CCCCOc1ccc(S(=O)(=O)NCc2csc(C)n2)cc1 | inconclusive [activator, partial curve, poor fit]
10 | O=C(NC(=S)Nc1ccc(Cl)cc1Cl)C1CC1 | inconclusive [activator, partial curve, poor fit]
11 | O=C(NC(=S)Nc1ccc2c(c1)OCCO2)c1ccc(F)cc1Cl | inconclusive [activator, partial curve]
12 | Cc1ccc(S(=O)(=O)Nc2ccccc2/C=N/c2nc3ccccc3n2C)cc1 | inactive
13 | COC(=O)[C@H](C)NC(=O)/C=C/c1ccc(OC)cc1 | inconclusive [activator, single point]
14 | COc1ccccc1N1CCN(/N=C/c2ccc(C(=O)O)cc2)CC1 | inactive
15 | O=C(N/N=C/c1nn(-c2ccccc2)cc1-c1ccc(Cl)cc1)c1ccncc1 | inactive
16 | CCOC(=O)c1c(C)c(C(=O)Nc2ccc3c(c2)OCCO3)c(C)n1CC | inconclusive [activator, single point]
17 | CC(C)(C)c1ccc(NC(=O)NCc2ccco2)cc1 | inconclusive [activator, partial curve, poor fit]
18 | CCOC(=O)c1ccc(NC(=O)Cn2cccc2)cc1 | inconclusive [activator, single point]
19 | CCCOc1ccc(C(=O)NNC(=S)NC(=O)c2cc(-c3ccccc3)nc3ccccc23)cc1 | inactive
20 | O=C(CCC1COc2ccccc2O1)Nc1ccc(Cl)cn1 (stereo unspecified) | inconclusive [activator, partial curve, poor fit]
21 | COc1ccc(/C=N/OCC(=O)N2CCCC2)c(OC)c1 | inconclusive [activator, single point]
22 | CCCNC(=O)c1ccc2c(=O)c(O)c(-c3ccsc3)[nH]c2c1 | inconclusive [activator, single point]
23 | O=C(C1=C[C@H](C2CC2)C[C@H](OCCCCO)O1)N1CCOCC1 | inactive
24 | Cn1c(O)c(/C=N/NC(=O)c2cc3ccccc3cc2O)c2ccccc21 | inconclusive [activator, full curve, poor fit]

Row | SMILES | Potency
25 | CCCCN(C(=O)Cc1cccs1)c1nnc(-c2cccnc2)s1 | inconclusive [activator, full curve, poor fit]
26 | Cc1ccc(/C=N/NC(=O)Cc2cccs2)o1 | inactive
27 | CCc1cc2c(=O)n(-c3ccc(Br)cc3)cnc2s1 | inconclusive [activator, partial curve, poor fit]
28 | CCOc1ccc(-c2cc(C(=O)N3CCN(c4ccccn4)CC3)c3ccccc3n2)cc1 | inconclusive [activator, partial curve, poor fit]
29 | CSCCC1NC(=O)N(CC(=O)Nc2ccc(Br)cc2Br)C1=O (stereo unspecified) | inactive
30 | Cc1ccc(NC(=O)N2CCCC2)cc1Cl | inactive
31 | O=C(NNC(=S)Nc1cccc(Cl)c1)c1ccccc1OC(F)F | inconclusive [activator, single point]
32 | COc1ccc(/C=N/NC(=O)c2ccc(NS(=O)(=O)c3cccs3)cc2)cc1 | inconclusive [activator, full curve, poor fit]
33 | COc1ccc(-c2n[nH]c(=S)n2-c2ccccc2C)cc1OC | inconclusive [activator, single point]
34 | COc1ccc(/C=N/Nc2nncc3ccccc23)c(OC)c1 | inactive
35 | CSc1ccc(/C=N/Nc2nc(C)cc(=O)[nH]2)cc1 | inactive
36 | Cc1cc(C)cc(C(=O)NC(=S)Nc2cccnc2)c1 | inactive
37 | CC(C)(C)c1cc(Br)c(O)c(N=Nc2ccc(S(=O)(=O)N3CCOCC3)cc2)c1 | inactive
38 | CN1CCN(c2nc(-c3cccs3)cs2)CC1 | inactive
39 | CC(C)(C)C(=O)NC(=S)Nc1ccc(S(=O)(=O)Nc2nccs2)cc1 | inactive
40 | O=C(N/N=C\c1ccc(Br)cc1)c1ccc(Cn2cccn2)o1 | inconclusive [activator, partial curve, poor fit]
41 | O=C(/C=C/c1cccs1)Nc1cccnc1 | inconclusive [activator, partial curve, poor fit]
42 | COc1ccccc1OCC(=O)Nc1ccc(-c2nnc(-c3ccco3)o2)cc1 | inactive
43 | Nc1c2c(nc3cccc(Cl)c13)N(c1ccccc1)CC2 | inconclusive [activator, partial curve, poor fit]
44 | Nc1c(-c2ccc3c(c2)OCCO3)oc2ccccc2c1=O | inconclusive [activator, partial curve, poor fit]
45 | Cc1ccc(C)n1-n1c(C)nc2sc(-c3ccccc3)cc2c1=O | inconclusive [activator, partial curve, poor fit]
46 | COC(=O)c1ccc(COC(=O)CNC(=O)c2ccc(-c3ccccc3)cc2)cc1 | inconclusive [activator, partial curve, poor fit]
47 | CCOc1cc(S(=O)(=O)NCCc2ccc(OC)c(OC)c2)c(OCC)cc1-n1cnnn1 | inactive
48 | CSc1nsc2nc(=O)c(/C=C3\C(C)=Nc4ccccc43)c(N)n12 | inconclusive [activator, single point]

Row | SMILES | Potency
49 | NC(=O)C1CCN(c2ncnc3c(-c4ccccc4)nsc23)CC1 | inconclusive [activator, full curve, poor fit]
50 | COc1cccc(CN2CCN(Cc3ccc(C#CC(C)(C)O)s3)CC2CCO)c1 (stereo unspecified) | inconclusive [activator, single point]
51 | C=CCSc1n[nH]c(-c2ccc(OCCC)cc2)n1 | inconclusive [activator, full curve, poor fit]
52 | Cc1nn(-c2nc3ccccc3s2)c(C)c1Oc1ccccc1O | active: 12.6 µM
53 | O=C(Nc1ncccc1O)c1ccc(S(=O)(=O)Nc2ccccc2)cc1 | inconclusive [activator, full curve, poor fit]
54 | COc1ccc(/C=N/NC(=O)c2ccccc2O)cc1CSc1ccccn1 | inactive
55 | O=[N+]([O-])c1cccnc1NCCc1c[nH]c2ccccc12 | inactive
56 | Cc1ccc(NC(=O)C(NCc2ccccn2)c2ccccc2)cc1 (stereo unspecified) | inconclusive [activator, single point]
57 | Cc1cc(C)n2nc(NCc3cccc(Br)c3)nc2n1 | inactive
58 | Cc1onc(-c2c(F)cccc2Cl)c1C(=O)Nc1cccc2nsnc12 | inactive
59 | Cc1cc(C)c(C(=O)Nc2ccc(Br)c(C(F)(F)F)c2)c(C)c1 | inconclusive [activator, single point]
60 | CCCCNc1nc(N)nc(-c2cc(Cl)ccc2O)n1 | inconclusive [activator, partial curve, poor fit]
61 | CCCCCCC(C)NC(=S)Nc1cc(S(=O)(=O)N(C)C)ccc1C (stereo unspecified) | inactive
62 | CNC(=O)c1ccc(-c2cc3onc(-c4ccccc4)c3c(=O)n2C)cc1 | inconclusive [activator, full curve, poor fit]
63 | O=c1oc(CCCO)cc2ccc(C#Cc3cccnc3)cc12 | inconclusive [activator, partial curve, poor fit]
64 | N#Cc1nc(COc2ccccc2)oc1NCCCn1ccnc1 | inconclusive [activator, full curve, poor fit]
65 | O=C(CCCC(=O)OCC(F)(F)C(F)F)Nc1ccc(NC(=O)CCCC(=O)OCC(F)(F)C(F)F)cc1 | inactive
66 | N#Cc1c(-c2ccccc2)cc(-c2ccc3c(c2)OCO3)[nH]c1=O | inactive
67 | Cc1cccc(/C=N\NC(=O)c2ccc(Cl)cc2)c1O | inconclusive [activator, single point]
68 | COc1ccc(NC(=O)Nc2ccccc2OC)cc1 | inconclusive [activator, full curve, poor fit]
69 | O=C(NCCc1ccccc1)/C(=C\c1cccc([N+](=O)[O-])c1)NC(=O)c1ccco1 | inconclusive [activator, single point]
70 | Cc1ccc(NC(=O)CSc2nnc(-c3ccco3)n2N)cc1F | inconclusive [activator, single point]
71 | C=CCNc1nc(NCc2ccccc2)c(C#N)c2c1CN(C)CC2 | inconclusive [activator, single point]
